From US20110105515A1, “TARGETING THE ONCOPROTEIN NUCLEOPHOSMIN” (President and Fellows of Harvard College, priority 2007, published 2011) come the findings set out here.

Like-named read-outs stand apart in the source and are kept apart here.

The test system of series [1] is NCI-H322M. As to conditions: NCI-H322M (Non-Small Cell Lung Cancer), 48 hours, SRB; for CC50: read-out: LC50.
The subject of series [2] is NCI-H322M. The series can be described thus: cells. As to conditions: Homo sapiens, 48 h; for CC50: read-out: LC50.

`CC1(C)C=Cc2c(ccc3c4c(n(O)c23)C(C)(C)C2CC35CCCN3C(=O)C2(NC5=O)C4SCC(NC(=O)CCC(N)C(=O)O)C(=O)NCC(=O)O)O1` (stereo not drawn) [Glutathione Adduct]: in the series with NCI-H322M [1], it took 1.38 µM to inhibit growth by half (GI50), the total growth inhibition concentration (TGI) was 4.63 µM and the CC50 was 16.1 µM.

For `[2H]On1c2c(c3ccc4c(c31)C=CC(C)(C)O4)C(OC([2H])([2H])[2H])[C@@]13NC(=O)C4(CCCN4C1=O)CC3C2(C)C` (stereo partly drawn) [Deuterated Methanol Adduct], in the series on NCI-H322M [2], the GI50 worked out at 1.22 µM and the CC50 is 5.31 µM. In the series with NCI-H322M [1], this compound gave a total growth inhibition concentration (TGI) of 2.54 µM.

For `CN(C)c1cccc2c(S(=O)(=O)NCCCCCCCCCCOc3ccc4c(c3)[N+]([O-])=C3C4=C[C@@]45NC(=O)C6(CCCN6C4=O)CC5C3(C)C)cccc12` (stereo partly drawn) [Dansyl Analogue], in the series on NCI-H322M [1], it took 1.48 µM to inhibit growth by half (GI50), the total growth inhibition concentration (TGI) amounted to 3.58 µM and the CC50 was determined as 8.67 µM.

As to `Cc1cc(C)cc(-c2ccc3c(c2)[N+]([O-])=C2C3=C[C@@]34NC(=O)C5(CCCN5C3=O)CC4C2(C)C)c1` (stereo partly drawn) [Biphenyl Analogue], in the series with NCI-H322M [2], it took 0.278 µM to inhibit growth by half (GI50) and the CC50 was 3.79 µM. The compound also yielded a TGI in the series with NCI-H322M [1] of 1.28 µM.
